# Source: the supplement of paper PMC10681739
# ± gives the standard deviation of the averaged measurements. Over roughly 4,100 sequences, “arbitrary fluorescence units” has its median near 780; the highest 2% begin near 22,000. The list shows a part of the results.
# Target: T1, ETS1 (UniProt P14921)
# T1 sequence: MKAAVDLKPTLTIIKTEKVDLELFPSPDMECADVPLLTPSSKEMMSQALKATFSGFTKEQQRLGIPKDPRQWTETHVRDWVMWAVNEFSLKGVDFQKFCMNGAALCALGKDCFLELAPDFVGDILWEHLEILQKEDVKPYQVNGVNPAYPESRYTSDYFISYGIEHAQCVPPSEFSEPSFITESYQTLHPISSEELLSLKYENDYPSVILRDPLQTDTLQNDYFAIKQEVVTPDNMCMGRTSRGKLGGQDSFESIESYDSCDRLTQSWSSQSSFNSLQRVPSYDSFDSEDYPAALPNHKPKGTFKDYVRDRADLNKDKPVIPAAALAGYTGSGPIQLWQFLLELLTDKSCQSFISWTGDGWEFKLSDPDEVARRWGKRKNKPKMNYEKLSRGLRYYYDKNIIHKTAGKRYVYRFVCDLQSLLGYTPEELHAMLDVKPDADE
# Assay: ETS1 binding intensity (PBM fluorescence), ETS1 alone (arbitrary fluorescence units); higher = stronger binding
# Conditions: ETS1 concentration 1 nM; RUNX1 concentration 0 nM
# Outline: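 Full-length recombinant human ETS1 (1 nM, no RUNX1) was incubated, per standard PBM protocols, on double-stranded Agilent 4 × 180k arrays of 36-bp genomic probes whose RUNX1 partner site was mutated. Bound ETS1 was detected with anti-ETS1 antibody (Cell Signaling Technology 14069) and Alexa488-conjugated secondary antibody, then scanned on a GenePix 4400A. Binding level is spot fluorescence intensity, summarised over replicate spots (four printed per sequence) and not normalised.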
row,Sequence,ETS1 binding intensity
1,GTGAGCTACAAGGGCCCCTGGGTCCTTCCTCCAAAC,316 ± 33
2,AACATCCGGTTCCCGGTTCTGCCCCCTACCCCAGCT,49100
3,TTTCTCTTCCTGTTTCCACCCTGAGCACAGCCAGCT,9020
4,CTGCAAACCCCAAAACACCTGACTGCTACGGAAGAT,424
5,CTTTCTTGTAGGCGATGATACTTCCTACATTCCCCC,516
6,TTTCGAGAAAACCGGAAGTGCGTGGACACGCCCCGC,31500
7,CTGCCAGAGCACACAGTTTGCACTTCCGGGGCGGGC,2710
8,CTCTCAGACTCAGGATGAGGTGGCCGTAGGTGGGGT,416
9,CACTGTGCTCTAACGACACTGACATCCGCCTGCCTC,1900
10,ACGAGGTTTCCTGCAGGCTCCAGCCGAGACAACATC,2630
11,AGCTGCGAGAACCCCAGTGAGAGTGTGATTTCCTCT,307
12,CTAACCCTGCTTCCTCTTAGTGCTTTCCCCCAACCT,2190
13,TTTTGCGATTTTTGATCTGGAAGCCACACATCCTTA,424
14,CTAACTCACACCAGCGCGTTGCCTCGGAAACATCGC,401
15,CTGAGGGTGCTTTGGGTGCAGCTTCCTGAAAGGAGA,575
16,CTGCGATTTCCTGGCCTACCGTCTGGTGTTGTACCT,4870
17,ACCAGCTGGGGCTGGGTGCAGCGGAAGGTGTCTACG,350
18,TGCCAGATCCGGCTGCGCCGGGGCCGAAAGCACGCC,2190
19,GAAAACACAGGAAGCCGTCCGCGCAAGCGCGTTGCA,3180
20,TTTACAGGAAATATCCAGAACAGGTAAACCTACAGA,2490
21,ACCTTGCAAGACCAAAACACATCCTGGGGCCCCACT,830

row,Sequence,ETS1 binding intensity
1,GAGCGCAGGACGGAAGCTCGGTGCGCGTACGGCCTC,1000
2,ACCCCAAAGATTCCTGTTGGTGCTCTGGGTCACAGG,326
3,GGCGGCACTAGGCTTCCGCCTCACCGAAGTGGGGTT,2020
4,ACCAGCCCAGGAAGCATCTGCAGTTCAAGTGGCCAC,494
5,CCTTGCTTCCTTCGGTGCAACCAGCGGGAATCCCAT,1380
6,GCCAACGCGCCCGGCCAAGCCTTTACTTCCTTTTAC,493
7,TTTGCTGTGATTATGACTTTCAACATACTTCCTGCT,867
8,GGGCTTATCTAGCGACAGCAGAACATCCTGCTCTGG,1170
9,TGTGTTAGTGGATTTCTCTTACGGCAGGAAGTGGGC,846
10,CAGGGCCCGGCATCCGCGCCATGGAACGCGCAGCTT,675
11,TGGATTAGCCGCTAAACATAGTTTCCTGTTGTGTAA,1890
12,GACAAACATACCCCTAGGACAGGATGTGAAATCCAC,1310
13,CCACACCTACAAGGCCAGCCTCACTTCCTCACTCCT,657
14,TTTGGGGCTCAAAATCACAGAGAAGCTTCCTATTGT,329
15,CTTGCCACACTTCCTCTTGTTTTGAACCTCTATATT,5040
16,CCCGCCACTTCCCTGCCTCTTCGGGAGCCCCCCAGC,1560
17,CTGCGTTTCCTCTGAGTTTTGCATGTTGACGTTGGA,3090
18,CGTCGTCTGGGAATCCGCCGACTTCCGGCCGCGCAG,15200
19,AGCGGCCAGGCCGCTGAGCCGGCCCCTTCCGCTTTA,573
20,GAGGGAAGGGAACCGGCGCCGCCGGAAGGAGCCGCT,948
21,CCTTCCTCCGCTTTCGGTGCCTGTTTCCGCCTCCAA,1720

row,Sequence,ETS1 binding intensity
1,TTGTGCTTCCTGCTCATGAGATTGCTAGCGGCTACT,6410 ± 700
2,CTGCCCATCGCTGTTAACTTTTCCGCCTCCTTAAAG,492
3,GAAGTGGACACGGAACTCGGCTGCAGCTCCATGGTC,342
4,CCTCCCTCCGCTCGCCTTCTTCCCGGAAGCTAAGTT,640
5,TGCAGGGAGCGCCTACAAAGGGAGGATGTCGCCGGC,345
6,TCTCGTCCGGTCCTTGCTCCCCCTCCCCTCAGCGCT,5380
7,TTTTCCGACGGAAGCCTTACTGCCCCAAACGTCACT,1260
8,CCCTGCCGTCGAGGTGCACTCTGGGAAATGTGATTT,405
9,AGCTCCACCGGAAACGGCCTGGCCGAAGCCAATCAG,20000
10,TGCTTAGCGGGAAGTGCTTACACCCCAAAACAAGAC,6200
11,GACGCCCTATTCGGGAGCCGGATGGGCGTAACGGGG,550
12,GCCTTCTGGGAAATGTAGTTCCCCGTCACCGTGAAG,351
13,AAGTGAGGCGGCTACCTCGGCGCCTTTTCCGGCAGC,396
14,TTAGACGAGGCTCTGGCTACCGGAAAGAGCGCAGGC,838
15,AAGCCCTCAGCCCGGCCCCGGCCCCCGGATGTGGGG,467
16,TTACGACACTTCCGGCGACGCCCCTCAGCCTTCACC,17500
17,AGAGGCTTCCTGAGGAACTGGTGTTGTCAGGGGAGC,1620
18,GCCCCGGAAGTGGCCCGGCTGTTGGCCGAAGCGGGA,8010
19,TTTCTCTGGCCGGGGAAATTGAGGTCACTTCCTGTC,4180
20,CCTCACAGGGACTTCCTTCCCCGCTGTTCAGGAATC,2330
